# Data from PubChem BioAssay AID1347073 (National Center for Advancing Translational Sciences (NCATS), 2019).
# Hit rate of the full screen: of about 45,000 compounds, about 200 (0.44%) were called active. Not shown: some 7% with an inconclusive outcome. Calls come from the whole dose curve; as a rule, active = well fitted activation curve with a large enough effect; inconclusive = small, poorly fitted or top-dose-only effect; inactive = no such curve, though single readings can be large or run the other way. The list shows a part of the results.
# Test: qHTS of TDP-43 Inhibitors: NCGC Sytravon Library Screen; note: nearly all actives have a fitted effect of over 55% in size; for growth rescue (activation): 0% is about no effect
# Conditions: yeast TDP-43 toxicity rescue, BacTiter-Glo growth, 24 h; series mostly up to 46.1 µM; growth rescue (activation): at the top concentration
# Method in brief: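 TDP-43-expressing yeast, pregrown in raffinose, seeded at OD600 0.02 in galactose medium with compound for 24 hr at 30 deg C. Growth read by BacTiter-Glo luminescence, so rescue of toxicity appears as activation.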
# Potency is the fitted concentration of half-maximal effect.
SMILES,growth rescue (activation),Potency
COc1ccc(C2(C(=O)N3CCOCC3)CCOCC2)cc1OC,inactive: 11.9%,
O=C(CCCN1C(=O)/C(=C/c2cccs2)SC1=S)Nc1ccc(O)cc1,inactive: 5.62%,
COCCNc1nc(NCCOc2ccccc2Cl)c2sc(-c3ccccc3)cc2n1,inactive: -0.765%,
CSC1=N/C(=C\c2ccccc2F)C(=O)S1,inactive: 4.37%,
Cc1cc(C)c(C(=O)CN2C(=O)NC3(CCCCCC3)C2=O)cc1C,inactive: -32.3%,
CCc1ccc(CN(C)C(=O)c2cccc(S(=O)(=O)Nc3ccccc3OC)c2)cc1,inactive: 13%,
COc1cc(OC)cc(C(=O)N[C@H](C(=O)NC2CCCc3ccccc32)C(C)C)c1 (some centres undefined),inactive: 12.8%,
OCCNc1ncnc2ccc(Br)cc12,inactive: 16.7%,
COc1ccc(NC(=O)c2cccc(N3C(=O)C4CCC(C)CC4C3=O)c2)c(OC)c1 (centres undefined),inactive: 12.9%,
O=c1[nH]c(C2CCN(S(=O)(=O)c3ccc(S(=O)(=O)NC4CC4)cc3)CC2)nc2c1nnn2Cc1cccc(F)c1,inactive: 5.29%,
Cc1ccc(NC(=O)/C=C/c2ccc3c(c2)OCO3)nc1,inactive: 13.8%,
Cc1cc(C)n2cc(CSc3nnc(-c4ccccc4)o3)nc2n1,inactive: 1.76%,
COc1ccc(/C=C/C(=O)Nc2ccc(N3CCOCC3)cc2)cc1,inactive: 12.4%,
Cc1cccc(NC(=O)CN(C)C(=O)/C=C/c2ccccc2)c1C,inactive: -6.9%,
O=c1[nH]c2cc(Cl)c([N+](=O)[O-])nc2[nH]1,inactive: -8.45%,
COc1ccc(S(=O)(=O)Nc2c(C)nc3nc(C)[nH]n3c2=O)cc1,inactive: -3.88%,
O=C(CSc1n[nH]c(-c2ccncc2)n1)Nc1ccccc1,inactive: -36.4%,
Cc1ccc(NC(=O)C2CC2)cc1S(=O)(=O)N1CCOCC1,inactive: -6.4%,
CCn1c(COc2ccc3c(c2)OCO3)nnc1SCC(=O)c1ccccc1,inactive: 15.4%,
COCCCNC(=O)c1cc(Sc2nnc(C)s2)nc2ccccc12,inactive: 2.45%,
O=C(CCNC(=O)c1ccc([N+](=O)[O-])cc1)Nc1ccc(F)c(F)c1F,inactive: -0.903%,
CC(=O)C1=C(O)C(=O)N(c2nccs2)C1c1ccc(F)cc1 (centres undefined),inactive: -6.69%,
CCOc1ccc(NC(=O)CCNS(=O)(=O)c2cccc3nonc23)cc1,inactive: -2.82%,
CCCC(=O)Nc1c2c(nn1-c1ccc(F)cc1)CS(=O)(=O)C2,inactive: -2.05%,
CC(=O)C1=C(O)C(=O)N(c2ccc(O)cc2)C1c1ccc(C)cc1 (centres undefined),inactive: -0.267%,
CC1=C(C(=O)OC2CCCC2)C(c2coc3ccccc3c2=O)C2=C(CCCC2=O)N1 (centres undefined),inactive: -1.56%,

SMILES,growth rescue (activation),Potency
Cc1ccc(C(C)C)cc1S(=O)(=O)NC1CC(C)(C)NC(C)(C)C1,inactive: 6.83%,
CC1=CN2C(=N)/C(=C\c3cn(CCCOc4ccccc4)c4ccccc34)C(=O)N=C2S1,inactive: -1.72%,
CCOC(=O)c1c(C)[nH]c(C)c1C(=O)COC(=O)c1cc(OC)c(OC)cc1OC,inactive: 14.3%,
CCOC(=O)C1(C)CCCN(C(=O)c2ccc(-c3ccccc3)cc2)C1 (centres undefined),inactive: 14%,
COCc1ccc(C(=O)Nc2cccc(S(=O)(=O)N(C)c3ccccc3)c2)cc1,inactive: 15.9%,
Cc1ccc(CNC(=O)CN2C(=O)c3ccccc3S2(=O)=O)cc1,inactive: -1.68%,
Cc1ccc2c(c1)C1CN(C)CCC1N2Sc1ccccc1[N+](=O)[O-] (centres undefined),inactive: -4.38%,
COc1ccc(Cl)cc1N/C(N)=N/c1nc(C)cc(C)n1,inactive: 11.3%,
CCn1c(SCC(=O)N2CCCC(C)C2)nc2c1c(=O)n(C)c(=O)n2C (centres undefined),inactive: -3.72%,
CCOc1ccc(Br)cc1CN(CC)CC,inactive: 9.06%,
COc1ccccc1NC(=O)CSc1nc(-c2ccc(C(C)(C)C)cc2)c(C#N)c(=O)[nH]1,inactive: -15.2%,
CCCN(CC1CC1)C(=O)CSc1nnc(-c2cc(-c3cccs3)nc3ccccc23)o1,inactive: -6.42%,
O=[N+]([O-])c1ccc(N2CCCCC2)s1,inactive: -4.9%,
Cc1nc2nc[nH]n2c(=O)c1NS(=O)(=O)c1ccc(F)cc1,inactive: -0.684%,
COc1ccc(CCN2CCCC(CN(C)Cc3cccc(OC)c3)C2)cc1 (centres undefined),inactive: 6.49%,
CCOC(=O)C1CCCN(C(=O)c2ccc(OC)cc2)CC1 (centres undefined),inactive: 9.96%,
COC(=O)c1c(NC(=O)CCNCc2ccco2)sc2c1CCC2,inactive: 16.6%,
COc1ccc(-n2c(=S)[nH]c3cc(C(=O)Nc4ccc(C)c(F)c4)ccc3c2=O)c(OC)c1,inactive: 21.1%,
CCOC(=O)Cc1csc(N/C(=N/S(=O)(=O)c2ccc(Cl)cc2)c2ccccc2)n1,inactive: -2.98%,
O=C(OCC(=O)N1CCC(Cc2ccccc2)CC1)c1cccnc1Cl,inactive: 8.35%,
CCn1nnc2cc(C(=O)NCCc3ccccc3F)ccc21,inactive: -2.86%,
Cc1cc(C)cc(N2C(=O)CC(Sc3ncn[nH]3)C2=O)c1 (centres undefined),inactive: 22.6%,
Cn1c(N)c(C(=O)CSc2nnc(N)s2)c(=O)n(C)c1=O,inactive: -22.4%,
CCCCc1c(C)nc(N)[nH]c1=O,inactive: 12%,
CC1CC(C)CN(S(=O)(=O)c2cccc(C(=O)N3C(=O)c4cccc(N)c4C3=O)c2)C1 (centres undefined),inactive: 20.1%,
O=c1cc(COc2ccc(Cl)c(Cl)c2)nc2sccn12,inactive: 11.3%,

SMILES,growth rescue (activation),Potency
C=CCC1(C#N)C(SC)=NC2=C(C(=O)CC(C)(C)C2)C1c1ccc(Br)cc1 (centres undefined),inactive: 5.16%,
NC(N)=NS(=O)(=O)c1ccc(NC(=S)NC(=O)c2ccncc2)cc1,inactive: 12.1%,
CSc1ccccc1C(=O)Nc1nc2ccccc2c(=O)[nH]1,inactive: 2.97%,
COc1ccc(CCNC(=O)c2cc3c(F)cccc3s2)cc1OC,inactive: -15.8%,
Cc1ccc(NC(=O)c2ccc(Cl)c(S(=O)(=O)Nc3c(C)n(C)n(-c4ccccc4)c3=O)c2)cc1Cl,inactive: 29%,
Cn1cc(C(=O)N2CCc3ccccc3C2)c(=O)c2cc(S(=O)(=O)N3CCOCC3)ccc21,inactive: 5.75%,
CC(=O)Nc1ccc(S(=O)(=O)NCc2nc(-c3ccccc3)no2)cc1,inactive: 2.2%,
NS(=O)(=O)c1ccc(Nc2nc(-c3cccc([N+](=O)[O-])c3)cs2)cc1,inactive: 1.63%,
CCN(CC)S(=O)(=O)c1cccc(C(=O)OC2CC(C)OC2=O)c1 (centres undefined),inactive: -4.1%,
COc1ccc(S(=O)(=O)N2CCCCC2)cc1NC(=O)c1cc(C)on1,inactive: 14.7%,
COc1cc(C(=O)NCC2CCCCC2)cc(OC)c1OC,inactive: 8.02%,
NS(=O)(=O)c1ccc(NC(=S)Nc2ccc(F)c(F)c2)cc1,inactive: 8.34%,
COc1ccc(NC(=S)N(CCC(C)C)C(C)c2ccncc2)cc1 (centres undefined),inactive: 3.25%,
O=c1[nH]c2cc3c(cc2cc1CN(Cc1ccco1)C(=S)NCCCN1CCOCC1)OCCO3,inactive: -3.01%,
COc1ccccc1Cn1c(=S)[nH]c2ccc(Br)cc2c1=O,inactive: 8.76%,
CC1(C)CC(NS(=O)(=O)c2ccc(F)cc2)CC(C)(C)N1,inactive: -0.139%,
CC(C)(C)c1ccc(OCCOCCn2cnc3ccccc3c2=O)cc1,inactive: 0.768%,
C/C(CC(=O)Nc1cccc(Cl)c1Cl)=N\NC(=O)c1ccccc1C,inactive: 15.5%,
CCCCN(C)C(=S)Nc1ccc(Oc2ccccc2)cc1,inactive: 21.2%,
COc1ccc(CNS(=O)(=O)NCc2ccc(OC)c(OC)c2)cc1,inactive: 11.7%,
Cc1cc(C(=O)CN2C(=O)C(=O)N(Cc3ccccc3)C2=O)c(C)n1-c1ccccc1F,inactive: -9.9%,
COc1cccc(C2NC(=O)c3sc(=S)n(-c4ccccc4)c3N2)c1 (centres undefined),inactive: 7.63%,
O=C(NCCN1CCCCCC1)C1CCN(S(=O)(=O)N2CCOCC2)CC1,inactive: -13.9%,
O=C(N/N=C\c1ccc2c(c1)OCO2)c1cncc(Br)c1,inactive: -2.5%,
O=S(=O)(NCCc1csc(-c2ccccc2)n1)c1ccc2c(c1)OCCO2,,active: 17.8 µM
CCOC(=O)C1(Cc2ccccc2)CCN(Cc2cnn(CC)c2)CC1,inactive: 6.02%,

SMILES,growth rescue (activation),Potency
CCN(C(=O)COC(=O)c1ccc(N2C(=O)c3ccccc3C2=O)cc1)C1CCS(=O)(=O)C1 (centres undefined),inactive: -1.79%,
NNC(=O)CSc1nc(-c2ccccc2)nc2c1CCCC2,inactive: 6.23%,
COc1cccc2cc(C(=O)C3=C(O)C(=O)N(CCN4CCOCC4)C3c3cccs3)oc12 (centres undefined),inactive: 9.7%,
O=C(Nc1ccc(NC(=O)c2cccs2)c(Cl)c1)c1cccs1,inactive: -0.504%,
COC(=O)C(C)(C)ONC(=O)Nc1ccc([N+](=O)[O-])cc1,inactive: 5.57%,
Cc1cc(C)cc(NC(=O)CSc2nnnn2-c2cccnc2)c1,inactive: 1.99%,
O=C(COC(=O)CNS(=O)(=O)c1ccc2ccccc2c1)Nc1ccccc1Sc1ccccc1,inactive: 21.8%,
Cc1cccc(S(=O)(=O)NC(=O)C2(C)CCN2C(=O)Cc2cccs2)c1 (centres undefined),inactive: 4.16%,
Cc1cc(C)c(C)c(S(=O)(=O)N2CCCN(C)CC2)c1C,inactive: 1.9%,
COc1ccccc1N(CC(=O)NCc1ccccc1C)S(=O)(=O)c1ccc(C)cc1,inactive: 21.6%,
CC(C)(C)OC(=O)N[C@@H](Cc1ccccc1)C(=O)NCC1CCC(C(=O)N[C@@H](CCC(N)=O)C(=O)O)CC1 (some centres undefined),inactive: -10.9%,
Nc1c(-c2ccccc2)c(CN2CCOCC2)nn1-c1ccc(F)cc1,inactive: 23.4%,
Cc1cccc(NC(=S)N/N=C2\CC(C)(C)Oc3ccc(O)cc32)c1,inactive: 19.8%,
CSc1ccccc1NC(=O)c1ccc(CN2CCOCC2)cc1,inactive: -6.96%,
CCOc1ccc(N2CC(C(=O)NCc3ccco3)CC2=O)cc1 (centres undefined),inactive: 4.37%,
Cc1[nH]c(=O)[nH]c(=O)c1CSCC(=O)OCC(=O)Nc1ccccn1,inactive: 3.81%,
Cc1cc2oc(=O)cc(CN(C)Cc3ccccc3)c2cc1C(C)C,inactive: -11.9%,
O=C(Nc1ccccc1Cl)C1CCCN(S(=O)(=O)c2ccc(-n3cnnn3)cc2)C1 (centres undefined),inactive: 7.06%,
Cc1cc(NC(=O)CSc2nc(-c3ccco3)cc(C(F)(F)F)n2)n(-c2ccccc2)n1,inactive: 25%,
CCc1cccc(C)c1NC(=O)C1CN(S(=O)(=O)c2ccccc2)CCN1S(=O)(=O)c1ccccc1 (centres undefined),inactive: 3.56%,
Cc1ccccc1S(=O)(=O)Nc1ncnc2ccccc12,inactive: 21.1%,
COc1ccc(S(=O)(=O)N2CCC(C(=O)NC3CC3)CC2)cc1,inactive: 12%,
COc1ccc(CCNc2ccc(N3C(=O)CC(C)C3=O)cc2[N+](=O)[O-])cc1OC (centres undefined),inactive: -22.4%,
COc1ccc(/C=N/NC(=O)c2ccc(N3CCCC3=O)cc2)cc1,inactive: 7.25%,
CC(C)(C)NC(=O)C(c1ccccn1)N(C(=O)C1CSC(=O)C1)c1cccc(F)c1 (centres undefined),inactive: 3.5%,
O=C(N/N=C/c1cn(CC(=O)N2CCOCC2)c2ccccc12)c1cccnc1,inactive: -12.4%,
